Test results: a collection of fitness landscapes (doi:10.1126/science.1257360)
This is one part of the list.

B1: PhoQ; a variant is named by its letters at X, in order, P23837 (parent)
chain: MKKLLRLFFPLSLRVRFLLATAAVVLVLSLAYGMVALIGYSVSFDKTTFRLLRGESNLFYTLAKWENNKLHVELPENIDKQSPTMTLIYDENGQLLWAQRDVPWLMKMIQPDWLKSNGFHEIEADVNDTSLLLSGDHSIQQQLQEVREDDDDAEMTHSVAVNVYPATSRMPKLTIVVVDTIPVELKSSYMVWSWFIYVLSANLLLVIPLLWVAAWWSLRPIEALAKEVRELEEHNRELLNPATTRELTSLVRNLNRLLKSERERYDKYRTTLTDLTHSLKTPLXXLQXXLRSLRSEKMSVSDAEPVMLEQISRISQQIGYYLHRASMRGGTLLSRELHPVAPLLDNLTSALNKVYQRKGVNISLDISPEISFVGEQNDFVEVMGNVLDNACKYCLEFVEISARQTDEHLYIVVEDDGPGIPLSKREVIFDRGQRVDTLRPGQGVGLAVAREITEQYEGKIVAGESMLGGARMEVIFGRQHSAPKDE

Variants of: B1
Assay: enrichment ratio after two sorts for PhoP signalling (ratio (wild type AVST 3.29)); higher = more functional
Conditions: with PhoP (E. coli)

| Variant | enrichment ratio |
| --- | --- |
| EDIY | ≤ 0.25 |
| MRII | ≤ 0.25 |
| DRRN | ≤ 0.25 |
| PNME | ≤ 0.25 |
| MPPL | ≤ 0.25 |
| FYTP | ≤ 0.25 |
| ICSY | ≤ 0.25 |
| NDST | ≤ 0.25 |
| RMSL | ≤ 0.25 |
| AWLF | ≤ 0.25 |
| PMVS | ≤ 0.25 |
| GLDS | ≤ 0.25 |
| LINS | ≤ 0.25 |
| IVIS | ≤ 0.25 |
| HGMP | ≤ 0.25 |
| YNGN | ≤ 0.25 |
| GGAK | ≤ 0.25 |
| AHRA | ≤ 0.25 |
| DKTI | ≤ 0.25 |
| RSRA | ≤ 0.25 |
| FNLT | ≤ 0.25 |
| KTRT | ≤ 0.25 |
| TLYI | 0.826 |
| PSLW | ≤ 0.25 |

| Variant | enrichment ratio |
| --- | --- |
| EIHK | ≤ 0.25 |
| TENC | 8.76 |
| KPFN | ≤ 0.25 |
| ANEK | ≤ 0.25 |
| WKQE | ≤ 0.25 |
| GRLS | ≤ 0.25 |
| DQML | ≤ 0.25 |
| PDKP | ≤ 0.25 |
| SVGK | 4.33 |
| PAVA | ≤ 0.25 |
| DIRL | 0.731 |
| PYHN | ≤ 0.25 |
| LNRC | ≤ 0.25 |
| SKDY | ≤ 0.25 |
| DVSY | ≤ 0.25 |
| GDWP | ≤ 0.25 |
| PIGV | ≤ 0.25 |
| DRAN | ≤ 0.25 |
| MAGP | ≤ 0.25 |
| RAAW | ≤ 0.25 |
| FRVY | ≤ 0.25 |
| PCHP | ≤ 0.25 |
| KKHV | ≤ 0.25 |
| GCLN | 11.5 |

| Variant | enrichment ratio |
| --- | --- |
| LPRE | ≤ 0.25 |
| PHGW | ≤ 0.25 |
| RVCC | ≤ 0.25 |
| PKQP | ≤ 0.25 |
| RQEM | ≤ 0.25 |
| GNKA | ≤ 0.25 |
| EALC | ≤ 0.25 |
| VFRT | ≤ 0.25 |
| GHRY | ≤ 0.25 |
| QYLI | ≤ 0.25 |
| DVVI | ≤ 0.25 |
| WSTM | ≤ 0.25 |
| RKCV | ≤ 0.25 |
| LMHG | ≤ 0.25 |
| QKTN | ≤ 0.25 |
| LEIM | ≤ 0.25 |
| VDVC | 0.855 |
| PNCC | ≤ 0.25 |
| EFFC | ≤ 0.25 |
| NSKC | 0.925 |
| ADEM | ≤ 0.25 |
| NAWW | ≤ 0.25 |
| WGYR | ≤ 0.25 |
| YFDV | ≤ 0.25 |

| Variant | enrichment ratio |
| --- | --- |
| RWLS | ≤ 0.25 |
| KRGK | ≤ 0.25 |
| HAFP | ≤ 0.25 |
| KMVK | ≤ 0.25 |
| SILV | 2.22 |
| EGLL | 1.68 |
| NHCY | ≤ 0.25 |
| APSW | ≤ 0.25 |
| QLKN | ≤ 0.25 |
| DRWC | ≤ 0.25 |
| IREK | ≤ 0.25 |
| EDIH | ≤ 0.25 |
| NGLL | 3.87 |
| HPQN | ≤ 0.25 |
| MITV | 17.2 |
| HTCW | ≤ 0.25 |
| NATY | ≤ 0.25 |
| LWRN | ≤ 0.25 |
| PRFF | ≤ 0.25 |
| CTYM | ≤ 0.25 |
| YDCE | ≤ 0.25 |
| RHGL | ≤ 0.25 |
| KRNK | ≤ 0.25 |
| STNI | 0.519 |

| Variant | enrichment ratio |
| --- | --- |
| QFPV | ≤ 0.25 |
| ERTE | ≤ 0.25 |
| SCWW | ≤ 0.25 |
| IPHS | ≤ 0.25 |
| EDRM | ≤ 0.25 |
| KRFN | ≤ 0.25 |
| PPAD | ≤ 0.25 |
| QRPL | ≤ 0.25 |
| IHEY | ≤ 0.25 |
| PQSW | ≤ 0.25 |
| NTAN | ≤ 0.25 |
| NKHP | ≤ 0.25 |
| QQNI | 8.84 |
| NILF | ≤ 0.25 |
| RKVT | ≤ 0.25 |
| ANTM | 44 |
| WCSF | ≤ 0.25 |
| VISH | ≤ 0.25 |
| CRLL | ≤ 0.25 |
| NSFR | ≤ 0.25 |
| VQHE | ≤ 0.25 |
| DNWH | ≤ 0.25 |
| ACRK | ≤ 0.25 |
| EPVK | ≤ 0.25 |

| Variant | enrichment ratio |
| --- | --- |
| VNMM | 1.16 |
| KSHM | ≤ 0.25 |
| PLGK | ≤ 0.25 |
| MQKC | ≤ 0.25 |
| MIYW | ≤ 0.25 |
| DSSC | ≤ 0.25 |
| VYWP | ≤ 0.25 |
| RLGA | ≤ 0.25 |
| YGRQ | ≤ 0.25 |
| TAFI | 0.754 |
| LPGN | ≤ 0.25 |
| THGW | ≤ 0.25 |
| LLGE | ≤ 0.25 |
| DPSS | ≤ 0.25 |
| TRDH | ≤ 0.25 |
| AHQI | ≤ 0.25 |
| WNTD | ≤ 0.25 |
| MGEI | ≤ 0.25 |
| GRGC | ≤ 0.25 |
| RQIL | ≤ 0.25 |
| VKHT | ≤ 0.25 |
| RLRT | ≤ 0.25 |
| GYQR | ≤ 0.25 |
| YAYY | ≤ 0.25 |

| Variant | enrichment ratio |
| --- | --- |
| VFNE | ≤ 0.25 |
| NCYD | ≤ 0.25 |
| DDPQ | ≤ 0.25 |
| NDNC | ≤ 0.25 |
| RHTT | ≤ 0.25 |
| SHYN | ≤ 0.25 |
| SHPW | ≤ 0.25 |
| EKFF | ≤ 0.25 |
| RCNA | ≤ 0.25 |
| VHYF | ≤ 0.25 |
| DDFG | ≤ 0.25 |
| VPHN | ≤ 0.25 |
| YLPL | ≤ 0.25 |
| MNRN | ≤ 0.25 |
| EHTE | ≤ 0.25 |
| HEVT | ≤ 0.25 |
| VRHR | ≤ 0.25 |
| PIDR | ≤ 0.25 |
| VGKW | ≤ 0.25 |
| HWIY | ≤ 0.25 |
| NTVW | ≤ 0.25 |
| MANA | ≤ 0.25 |
| RQIT | ≤ 0.25 |
| TMHK | ≤ 0.25 |

| Variant | enrichment ratio |
| --- | --- |
| NSYM | ≤ 0.25 |
| TNRP | ≤ 0.25 |
| IHIC | ≤ 0.25 |
| YQPG | ≤ 0.25 |
| VANN | ≤ 0.25 |
| GVLT | ≤ 0.25 |
| DVEY | ≤ 0.25 |
| VKWR | ≤ 0.25 |
| LLPC | ≤ 0.25 |
| RVGL | ≤ 0.25 |
| PGPS | ≤ 0.25 |
| WMVF | ≤ 0.25 |
| VVLN | ≤ 0.25 |
| FVCV | ≤ 0.25 |
| NIIP | ≤ 0.25 |
| FNGE | ≤ 0.25 |
| DWIM | ≤ 0.25 |
| RTNT | ≤ 0.25 |
| KDYH | ≤ 0.25 |
| INTQ | ≤ 0.25 |
| DALS | ≤ 0.25 |
| TVYA | ≤ 0.25 |
| NWVR | ≤ 0.25 |
| SIPV | 7.67 |

| Variant | enrichment ratio |
| --- | --- |
| IRPV | ≤ 0.25 |
| FCWQ | ≤ 0.25 |
| FGKD | ≤ 0.25 |
| WPVL | ≤ 0.25 |
| MSQA | ≤ 0.25 |
| YPLF | ≤ 0.25 |
| SQFH | ≤ 0.25 |
| FDNS | ≤ 0.25 |
| KIIG | ≤ 0.25 |
| TENS | 8.17 |
| HQTT | ≤ 0.25 |
| ITCV | ≤ 0.25 |
| IMRE | ≤ 0.25 |
| LYND | ≤ 0.25 |
| QHNR | ≤ 0.25 |
| YLTE | ≤ 0.25 |
| WQGP | ≤ 0.25 |
| LTAR | ≤ 0.25 |
| KCFF | ≤ 0.25 |
| RLID | ≤ 0.25 |
| SEEG | 2.48 |
| KEQD | ≤ 0.25 |
| KGFW | ≤ 0.25 |
| QCWN | 8.13 |

| Variant | enrichment ratio |
| --- | --- |
| ELQC | ≤ 0.25 |
| TCAA | 3.57 |
| SRCE | ≤ 0.25 |
| CSNI | ≤ 0.25 |
| SMSL | 5.83 |
| GFKP | ≤ 0.25 |
| FWYL | ≤ 0.25 |
| HNYP | ≤ 0.25 |
| KCRR | ≤ 0.25 |
| FTVD | ≤ 0.25 |
| HSIN | ≤ 0.25 |
| INRC | ≤ 0.25 |
| AYVH | ≤ 0.25 |
| KKLM | ≤ 0.25 |
| NTFT | ≤ 0.25 |
| HYPI | ≤ 0.25 |
| RYSM | ≤ 0.25 |
| TKKY | ≤ 0.25 |
| MYDS | ≤ 0.25 |
| EYQL | ≤ 0.25 |
| KQLR | 0.67 |
| PYHK | ≤ 0.25 |
| ECVF | ≤ 0.25 |
| YDSF | ≤ 0.25 |

| Variant | enrichment ratio |
| --- | --- |
| WVTL | ≤ 0.25 |
| SDRN | ≤ 0.25 |
| NFHA | ≤ 0.25 |
| YFHC | ≤ 0.25 |
| HSCY | ≤ 0.25 |
| RRHW | ≤ 0.25 |
| MPDV | ≤ 0.25 |
| HPRC | ≤ 0.25 |
| PSMH | ≤ 0.25 |
| SSSE | 9.78 |
| GIYL | 1.11 |
| QCDP | ≤ 0.25 |
| RWQR | ≤ 0.25 |
| VSGM | ≤ 0.25 |
| RILY | ≤ 0.25 |
| MTMP | ≤ 0.25 |
| IDAS | ≤ 0.25 |
| MHNL | ≤ 0.25 |
| TYWN | ≤ 0.25 |
| FNMK | ≤ 0.25 |
| MMQT | ≤ 0.25 |
| TLDM | ≤ 0.25 |
| IDPH | ≤ 0.25 |
| NAKR | ≤ 0.25 |

| Variant | enrichment ratio |
| --- | --- |
| DVPW | ≤ 0.25 |
| DGFT | ≤ 0.25 |
| YNES | ≤ 0.25 |
| KVGH | ≤ 0.25 |
| IMIQ | ≤ 0.25 |
| HEAL | ≤ 0.25 |
| MGRN | ≤ 0.25 |
| EDHF | ≤ 0.25 |
| MIYH | 7.94 |
| TYRW | ≤ 0.25 |
| SERE | ≤ 0.25 |
| PKPP | ≤ 0.25 |
| HNYT | ≤ 0.25 |
| TWWI | ≤ 0.25 |
| SEPW | ≤ 0.25 |
| RYTP | ≤ 0.25 |
| SRYN | ≤ 0.25 |
| YRFC | ≤ 0.25 |
| DSNC | ≤ 0.25 |
| PHDD | ≤ 0.25 |
| ALLH | 4.8 |
| GEMA | ≤ 0.25 |
| AVTY | 5.84 |
| CIRF | ≤ 0.25 |

| Variant | enrichment ratio |
| --- | --- |
| HWGG | ≤ 0.25 |
| MVSI | ≤ 0.25 |
| WQKL | ≤ 0.25 |
| TDKP | ≤ 0.25 |
| PGPQ | ≤ 0.25 |
| IHAS | ≤ 0.25 |
| ELSF | ≤ 0.25 |
| MLTP | ≤ 0.25 |
| LTQK | ≤ 0.25 |
| KISH | ≤ 0.25 |
| VAPD | ≤ 0.25 |
| FGRR | ≤ 0.25 |
| GDES | ≤ 0.25 |
| FANT | ≤ 0.25 |
| GARC | ≤ 0.25 |
| MYLQ | ≤ 0.25 |
| DMNV | ≤ 0.25 |
| TDMH | 18.2 |
